Like-named read-outs stand apart in the source and are kept apart here.
T1: hIL2Rβ (hCD122) (human, UniProt P14784 27-239, limits assumed)
T1 construct: bought recombinant protein; also called hCD122 (Acro)
T1 sequence (looked up): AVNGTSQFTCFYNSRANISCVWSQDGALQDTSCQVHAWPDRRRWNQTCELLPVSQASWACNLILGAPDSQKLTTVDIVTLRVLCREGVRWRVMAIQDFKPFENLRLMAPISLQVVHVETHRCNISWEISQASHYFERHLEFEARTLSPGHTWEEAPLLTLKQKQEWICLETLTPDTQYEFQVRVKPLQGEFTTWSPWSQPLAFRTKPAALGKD

T2: hIL2Rα (hCD25) (human, UniProt P01589 22-213, limits assumed)
T2 construct: bought recombinant protein; also called hCD25 (Acro); biotin-CD25 (Acro)
T2 sequence (looked up): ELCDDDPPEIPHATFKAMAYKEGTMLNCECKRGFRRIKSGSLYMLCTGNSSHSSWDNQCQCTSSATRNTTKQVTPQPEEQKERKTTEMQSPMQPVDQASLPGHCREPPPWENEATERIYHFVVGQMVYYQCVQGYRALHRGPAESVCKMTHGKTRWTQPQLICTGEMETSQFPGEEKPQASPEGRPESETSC

T3: high-affinity IL2R expressed on the surface of CTLL-2 cells
T3 sequence (P01590 whole entry, species assumed, looked up): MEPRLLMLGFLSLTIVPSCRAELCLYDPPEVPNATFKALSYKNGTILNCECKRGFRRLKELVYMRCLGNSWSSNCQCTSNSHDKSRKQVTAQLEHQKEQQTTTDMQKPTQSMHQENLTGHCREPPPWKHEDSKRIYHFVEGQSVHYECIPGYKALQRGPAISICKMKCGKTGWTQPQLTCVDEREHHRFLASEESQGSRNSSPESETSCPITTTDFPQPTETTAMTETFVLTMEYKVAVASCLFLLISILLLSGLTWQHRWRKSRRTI
T3 sequence (P16297 whole entry, species assumed, looked up): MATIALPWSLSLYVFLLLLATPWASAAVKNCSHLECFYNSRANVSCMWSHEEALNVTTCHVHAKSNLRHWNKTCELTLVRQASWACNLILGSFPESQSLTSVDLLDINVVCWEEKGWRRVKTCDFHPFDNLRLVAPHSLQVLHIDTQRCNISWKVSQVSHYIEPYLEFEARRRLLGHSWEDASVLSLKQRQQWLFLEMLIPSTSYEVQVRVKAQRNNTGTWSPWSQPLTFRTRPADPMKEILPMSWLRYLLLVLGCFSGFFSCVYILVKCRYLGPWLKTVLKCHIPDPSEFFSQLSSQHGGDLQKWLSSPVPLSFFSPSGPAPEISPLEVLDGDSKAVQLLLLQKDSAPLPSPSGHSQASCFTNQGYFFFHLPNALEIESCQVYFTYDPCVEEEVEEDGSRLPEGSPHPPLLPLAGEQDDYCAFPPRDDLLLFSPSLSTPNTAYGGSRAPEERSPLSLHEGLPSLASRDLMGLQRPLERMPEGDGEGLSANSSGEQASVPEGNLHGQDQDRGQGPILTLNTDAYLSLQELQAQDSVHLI
T3 sequence (P34902 whole entry, species assumed, looked up): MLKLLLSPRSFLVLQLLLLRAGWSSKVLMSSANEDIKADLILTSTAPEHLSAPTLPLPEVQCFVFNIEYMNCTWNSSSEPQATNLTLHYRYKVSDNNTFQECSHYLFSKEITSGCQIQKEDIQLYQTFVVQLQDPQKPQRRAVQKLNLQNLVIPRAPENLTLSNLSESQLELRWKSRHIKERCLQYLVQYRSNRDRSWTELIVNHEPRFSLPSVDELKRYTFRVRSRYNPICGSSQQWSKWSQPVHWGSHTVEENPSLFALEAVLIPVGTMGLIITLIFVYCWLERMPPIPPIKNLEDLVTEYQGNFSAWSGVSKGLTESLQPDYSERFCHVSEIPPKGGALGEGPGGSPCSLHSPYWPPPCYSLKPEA


Key:
[1] = biological target: T1, hIL2Rβ (hCD122); test: ELISA (method of section 2.1.1): sample captured on coated goat anti-human IgG, hCD122 titrated; the x axis is the CD122 concentration
[2] = biological target: T2, hIL2Rα (hCD25); test: ELISA (method of section 2.1.1): sample captured on coated goat anti-human IgG, hCD25 titrated; the x axis is the CD25 concentration
[3] = biological target: T2, hIL2Rα (hCD25); test: BLI (ForteBio): K2G11 on a Protein A sensor, saturated with hIL2-DM, then IL2Rα in 1:2 dilutions
[4] = biological target: T3, high-affinity IL2R expressed on the …; test: cell-based or functional assay
[5] = biological target: T3, high-affinity IL2R expressed on the …; test: cell-based or functional assay; remark: listed apart in the source

| Proliferative Activity in CTLL-2 Cells (EC50, nM) [4] | Proliferative Activity in CTLL-2 Cells (EC50, nM) [5] | Binder | other results |
| --- | --- | --- | --- |
| 10.7 nM | – | TCB2-Cy02 (other, hIL-2 fused to the N-terminus of the TCB2 light chain, disulfide IL:42-H:99) light: [… about 150 residues …]GGGGSGGGGSGGGGSGGGGSDIVMTQSPSSLSASVGDRVTIRCITSTDIDDDMNWYQQKPGKAPKLLISEGNTLRPGVPSRFSGSGYGTDFTFTISSLQPEDIADYYCLQSDNLPYTFGGGTKLEIK VH: QVQLVQSGAEVKKPGASVKVSCKASGYTFTTYWIQWVRQAPGQGLEWMGAIYPGDGDTRYIQNFKGRVTMTRDTSTSTVYMELSSLRSEDTAVYYCARSLATCGFYAMDYWGQGTLVTVSS | – |
| 3.77 nM | – | TCB2-Cy11 (other, hIL-2 fused to the N-terminus of the TCB2 light chain, disulfide IL:37-L:94) light: [… about 150 residues …]GGGGSGGGGSGGGGSGGGGSDIVMTQSPSSLSASVGDRVTIRCITSTDIDDDMNWYQQKPGKAPKLLISEGNTLRPGVPSRFSGSGYGTDFTFTISSLQPEDIADYYCLQSDNCPYTFGGGTKLEIK VH: QVQLVQSGAEVKKPGASVKVSCKASGYTFTTYWIQWVRQAPGQGLEWMGAIYPGDGDTRYIQNFKGRVTMTRDTSTSTVYMELSSLRSEDTAVYYCARSLATRGFYAMDYWGQGTLVTVSS | – |
| – | 3.36 nM | NARA1-Cy09 (other, hIL-2 fused to the N-terminus of the NARA1 light chain, disulfide IL:68-H:31) light: [… about 150 residues …]GGGGSGGGGSGGGGSGGGGSDIVLTQSPASLAVSLGQRATISCKASQSVDYDGDSYMNWYQQKPGQPPKLLIYAASNLESGIPARFSGSGSGTDFTLNIHPVEEEDAATYYCQQSNEDPYTFGGGTKLEIK VH: QVQLQQSGAELVRPGTSVKVSCKASGYAFTCYLIEWVKQRPGQGLEWIGVINPGSGGTNYNEKFKGKATLTADKSSSTAYMQLSSLTSDDSAVYFCARWRGDGYYAYFDVWGAGTTVTVSS | – |

Further lines, the binder ahead of its results:

| Binder | Proliferative Activity in CTLL-2 Cells (EC50, nM) [4] | Proliferative Activity in CTLL-2 Cells (EC50, nM) [5] | other results |
| --- | --- | --- | --- |
| IC-Cy07 (other, hIL-2/anti-IL-2 antibody fusion protein: hIL2-DM at the N-terminus of the heavy chain of hS4B6-H6K3(H), disulfide IL:64-H:97; also called H6K3(H)-Cy07; H6K3(H)-Cy-07) heavy: [… about 150 residues …]GGGGSGGGGSGGGGSGGGGSQVQLVQSGAEVKKPGATVKISCKVSGDTITAYYMHWVRQAPGQGLEWIGRIDPEDDSTKYAENFKGRVTITADTSTDTAYMELSSLRSEDTAVYYCTTVTCYYSRELRWFAYWGQGTLVTVSS VL: DIVLTQSPATLSLSPGERATLSCQASQDIGNYLSWYQQKPGQAPRLLIYSATSLASGIPARFSGSRSGTDFTLTISSLEPEDFAVYYCLQHYSTPYTFGQGTKLEIK | – | – | binding result [1]: binds; EC50 (read off the curve) [2]: ~0.05 µg/mL |
| K2G11 + hIL2-DM (hIL2-DM held by K2G11 on the sensor) (other, Non-covalent complex made on the sensor: K2G11 on Protein A, then saturated with hIL2-DM., also called protein complex formed by hIL2-DM and the antibody K2G11; copies: 2 + 2 + 2) heavy: QVQLVQSGAEVKKPGATVKISCKVSGDTITAYYMHWVRQAPGQGLEWIGRIDPDDDSTKYAENFKGRVTITADTSTDTAYMELSSLRSEDTAVYYCTTITFLYSRELRWFAYWGQGTLVTVSS[… human IgG1 constant region …] VL: DIVLTQSPATLSLSPGERATLSCQASQYISNYLSWYQQKPGQAPRLLIYSATSLASGIPARFSGSRSGTDFTLTISSLEPEDFAVYYCLQHYSTPYTFGQGTKLEIK [… about 150 residues …] | – | – | binding result [3]: no binding |
| TCB2-Cy01 (other, hIL-2 fused to the N-terminus of the TCB2 light chain, disulfide IL:68-H:97) light: [… about 150 residues …]GGGGSGGGGSGGGGSGGGGSDIVMTQSPSSLSASVGDRVTIRCITSTDIDDDMNWYQQKPGKAPKLLISEGNTLRPGVPSRFSGSGYGTDFTFTISSLQPEDIADYYCLQSDNLPYTFGGGTKLEIK VH: QVQLVQSGAEVKKPGASVKVSCKASGYTFTTYWIQWVRQAPGQGLEWMGAIYPGDGDTRYIQNFKGRVTMTRDTSTSTVYMELSSLRSEDTAVYYCARSLCTRGFYAMDYWGQGTLVTVSS | 1.34 nM | – | – |
| TCB2-Cy07 (other, hIL-2 fused to the N-terminus of the TCB2 light chain, disulfide IL:34-L:92) light: [… about 150 residues …]GGGGSGGGGSGGGGSGGGGSDIVMTQSPSSLSASVGDRVTIRCITSTDIDDDMNWYQQKPGKAPKLLISEGNTLRPGVPSRFSGSGYGTDFTFTISSLQPEDIADYYCLQSCNLPYTFGGGTKLEIK VH: QVQLVQSGAEVKKPGASVKVSCKASGYTFTTYWIQWVRQAPGQGLEWMGAIYPGDGDTRYIQNFKGRVTMTRDTSTSTVYMELSSLRSEDTAVYYCARSLATRGFYAMDYWGQGTLVTVSS | 9.28 nM | – | – |
| NARA1-Cy01 (other, hIL-2 fused to the N-terminus of the NARA1 light chain, disulfide IL:111-H:54) light: [… about 150 residues …]GGGGSGGGGSGGGGSGGGGSDIVLTQSPASLAVSLGQRATISCKASQSVDYDGDSYMNWYQQKPGQPPKLLIYAASNLESGIPARFSGSGSGTDFTLNIHPVEEEDAATYYCQQSNEDPYTFGGGTKLEIK VH: QVQLQQSGAELVRPGTSVKVSCKASGYAFTNYLIEWVKQRPGQGLEWIGVINPGCGGTNYNEKFKGKATLTADKSSSTAYMQLSSLTSDDSAVYFCARWRGDGYYAYFDVWGAGTTVTVSS | – | 2.92 nM | – |
| NARA1-Cy08 (other, hIL-2 fused to the N-terminus of the NARA1 light chain, disulfide IL:37-L:94) light: [… about 150 residues …]GGGGSGGGGSGGGGSGGGGSDIVLTQSPASLAVSLGQRATISCKASQSVDYDGDSYMNWYQQKPGQPPKLLIYAASNLESGIPARFSGSGSGTDFTLNIHPVEEEDAATYYCQQSNECPYTFGGGTKLEIK VH: QVQLQQSGAELVRPGTSVKVSCKASGYAFTNYLIEWVKQRPGQGLEWIGVINPGSGGTNYNEKFKGKATLTADKSSSTAYMQLSSLTSDDSAVYFCARWRGDGYYAYFDVWGAGTTVTVSS | – | 21.3 nM | – |
